# Screen size: about 270,000 compounds; about 5,800 (2.1%) were called active. The inconclusive results got no clear call from the source; some entries with a clear call stand among them for comparison. Calls follow the shape of the dose curve; as a rule, active = well fitted inhibition curve with a large enough effect; inconclusive = small, poorly fitted or top-dose-only effect; inactive = flat fitted curve, though single readings scatter. Potencies of inconclusive entries are doubtful fits and often do not repeat.
# Target: Microtubule-associated protein tau (Homo sapiens) (UniProt P10636)
# Experiment: qHTS for Inhibitors of Tau Fibril Formation, Thioflavin T Binding; also: nearly all actives have a fitted effect of over 55% in size
# Details: recombinant tau K18 P301L (four-repeat tau fragment), heparin-induced fibrillization, ThT fluorescence; series mostly up to 57.4 µM
# How it was run: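 Tau K18 P301L fragment (15 uM unlabeled plus 0.24 uM Alexa 594-labeled) in 100 mM sodium acetate pH 7 with compound, fibrillization induced by 20 uM heparin for 6 hr at 37 C. Thioflavin T (30 uM) added, fluorescence read after 1 hr (ex 450, em 510 nm).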
# Potency is read from the fitted curve at half-maximal effect; tags tell the direction and shape of the fitted curve.
# Sequence of UniProt P10636 (P10636 whole entry, looked up): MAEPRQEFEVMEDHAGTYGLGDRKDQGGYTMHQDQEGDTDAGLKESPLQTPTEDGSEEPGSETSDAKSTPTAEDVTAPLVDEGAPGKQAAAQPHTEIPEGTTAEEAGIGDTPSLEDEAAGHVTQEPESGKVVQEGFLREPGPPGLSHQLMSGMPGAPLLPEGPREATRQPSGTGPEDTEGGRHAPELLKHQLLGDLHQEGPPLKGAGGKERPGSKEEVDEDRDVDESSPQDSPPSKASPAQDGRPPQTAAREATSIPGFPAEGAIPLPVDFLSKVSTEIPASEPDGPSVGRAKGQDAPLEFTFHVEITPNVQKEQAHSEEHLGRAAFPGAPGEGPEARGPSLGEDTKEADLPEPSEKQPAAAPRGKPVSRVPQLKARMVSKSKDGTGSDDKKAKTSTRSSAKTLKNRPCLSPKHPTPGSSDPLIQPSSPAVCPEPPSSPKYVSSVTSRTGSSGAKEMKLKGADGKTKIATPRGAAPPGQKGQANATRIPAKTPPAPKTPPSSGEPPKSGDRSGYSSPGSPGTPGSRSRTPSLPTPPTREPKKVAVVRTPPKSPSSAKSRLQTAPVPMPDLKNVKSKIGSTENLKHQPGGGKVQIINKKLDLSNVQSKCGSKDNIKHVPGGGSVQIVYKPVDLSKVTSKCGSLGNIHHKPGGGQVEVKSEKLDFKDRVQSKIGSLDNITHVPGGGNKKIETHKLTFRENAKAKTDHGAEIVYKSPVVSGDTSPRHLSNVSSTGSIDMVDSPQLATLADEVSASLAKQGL
row,SMILES,Potency
1,COc1ccc(/C=N/n2c(N)nc3ccccc32)cc1OC,"inconclusive: 3.16 µM [inhibitor, full curve]"
2,C[N+]1(C2CCC3CCCC2C3O)CCCC1 (stereo not given),inactive
3,O=C(Nc1ccc(S(=O)(=O)Nc2ncccn2)cc1)c1ccc(S(=O)(=O)N2CCCC2)cc1,inactive
4,COc1ccc(-c2nc3n(c(=O)c2C#N)CCCS3)cc1,"inconclusive: 3.98 µM [inhibitor, partial curve]"
5,COc1c(O)cc2oc(-c3ccc(O)c(O)c3)cc(=O)c2c1O,"inconclusive: 14.1 µM [inhibitor, partial curve]"
6,Cc1ccc(S(=O)(=O)Oc2cccc(/C=N/Nc3ccc(C(=O)O)cc3)c2)cc1,inactive
7,O=C(CS(=O)(=O)c1cccc2nsnc12)N1CCN(c2cccc(Cl)c2)CC1,"inconclusive: 31.6 µM [inhibitor, single point]"
8,COC(=O)c1sc2[nH]c(=S)n(N)c(=O)c2c1C,"inconclusive: 20 µM [inhibitor, partial curve]"
9,CCOC(=O)c1sc2cccc(F)c2c1S(=O)(=O)NCc1ccccc1Cl,inactive
10,C/C(CCc1ccccc1)=N\NC(=O)C(=O)Nc1cccc(Cl)c1,"inconclusive: 11.2 µM [inhibitor, partial curve]"
11,CN1CCN(C(=O)c2cc3nc(-c4ccc(Cl)cc4)cc(C(F)(F)F)n3n2)CC1,inactive
12,C=CCn1c(O)c(N=NC(=S)Nc2ccc(OC)c(Cl)c2)c2ccccc21,"inconclusive: 4.47 µM [inhibitor, partial curve]"
13,COc1cccc(NC2=C(Cl)C(=O)OC2OC(=O)c2ccco2)c1 (stereo not given),"inconclusive: 12.6 µM [inhibitor, partial curve]"
14,CC(=O)c1ccc(NC(=S)Nc2cccc3cnccc23)cc1,"inconclusive: 10 µM [inhibitor, partial curve]"
15,C=CCn1c(SCC(=O)Nc2ccc(-c3nc4ccc(C)cc4s3)cc2)nnc1-c1ccccc1,"inconclusive: 4.47 µM [inhibitor, partial curve, poor fit]"
16,CCOc1ccc(-n2cc(-c3ccccc3)c3c(NCCc4ccccc4)ncnc32)cc1,"inconclusive: 2.51 µM [inhibitor, partial curve, poor fit]"
17,Cc1ccccc1Nc1cc(C(=O)NCc2ccco2)c2ccccc2n1,"inconclusive: 39.8 µM [inhibitor, single point]"
18,COc1ccc(Cn2c(O)c(C=Nc3ccc(OC)cc3)c3ccccc3c2=O)cc1,inactive
19,COC(=O)c1ccccc1Nc1cc(C)nc2nc(C)nn12,inactive
20,CCN(CC)S(=O)(=O)c1ccc(F)c(C(=O)NCCCN2CCOCC2)c1,inactive
21,O=C(CSc1nc2nc3c(cc2c(=O)n1-c1ccccc1)CCCC3)Nc1ccccc1,"inconclusive: 39.8 µM [activator, single point]"
22,CCC(c1nnnn1C1CCCC1)N1CCN(Cc2ccccc2)CC1 (stereo not given),inactive
23,O=C(CCCC(=O)N(CC(=O)NC1CCCC1)Cc1ccccc1)Nc1ccccn1,"inconclusive: 44.7 µM [inhibitor, single point]"

row,SMILES,Potency
1,Cc1csc2ncc(C(=O)Nc3ccc4c(c3)OCCO4)c(=O)n12,inactive
2,Cc1ccccc1NC(=O)Cn1cc(C(=O)c2ccco2)c2ccccc21,"inconclusive: 31.6 µM [inhibitor, partial curve, poor fit]"
3,COc1cccc(N2C(=O)C3CCCN3C2c2cccs2)c1 (stereo not given),inactive
4,COc1ccc2cc(-c3nc4ccccc4n3C)c(=O)oc2c1,"inconclusive: 7.94 µM [inhibitor, partial curve]"
5,CCOC(=O)C1(CCc2ccccc2)CCN(C(=O)c2occc2C)CC1,"inconclusive: 22.4 µM [inhibitor, partial curve]"
6,Cc1onc(-c2c(F)cccc2Cl)c1C(=O)NNC(=O)C1CCN(Cc2cccc(F)c2)CC1,inactive
7,O=C(Nc1ccc(F)cc1F)C1CCN(c2ncccn2)CC1,inactive
8,Cc1cc(NC(=O)CCc2nc3cccnc3n2-c2ccccc2)ccc1Br,inactive
9,CCc1nnc(NC(=O)CSc2ccc(-c3ccccc3OC)nn2)s1,"inconclusive: 7.94 µM [inhibitor, full curve]"
10,O=C(COC(=O)c1cccnc1Cl)Nc1nc(-c2ccccc2)cs1,"inconclusive: 8.91 µM [inhibitor, partial curve]"
11,COc1ccc(/C=N/NC(=O)CCCOc2ccc(Cl)cc2Cl)cc1,"inconclusive: 25.1 µM [inhibitor, partial curve]"
12,Cc1ccc(Cl)cc1-c1ccc(C=Nc2ccc(N3CCOCC3)cc2)o1,"inconclusive: 7.94 µM [inhibitor, single point]"
13,COc1ccc(C(=O)c2c(N)c(-c3nc(-c4ccc5c(c4)OCO5)cs3)c3ccccn23)cc1,"inconclusive: 5.62 µM [inhibitor, full curve]"
14,Cc1cc(OCC(=O)Nc2ccc(N3CCN(C(=O)c4ccco4)CC3)cc2)cc(C)c1Cl,"inconclusive: 1.41 µM [inhibitor, full curve]"
15,O=C(CCNS(=O)(=O)c1ccc2c(c1)CCCC(=O)N2)Nc1cccc(Cl)c1,inactive
16,COc1cc2c(cc1NC(=O)C(C)Sc1ccc(NC(C)=O)cc1)oc1ccccc12 (stereo not given),inactive
17,COc1ccc(C(=O)CN2CCN(c3cc(C)nc4ccccc34)CC2)cc1,"inconclusive: 35.5 µM [inhibitor, partial curve]"
18,CCCn1c(N)c(C(c2ccc(OC)cc2)N2CCN(c3ccccc3)CC2)c(=O)[nH]c1=O (stereo not given),"inconclusive: 10 µM [inhibitor, partial curve]"
19,CCCCn1c(CCC(=O)O)nc2cc(S(=O)(=O)N(C)C)ccc21,inactive
20,COc1cc(OC)cc(-c2cc3nc(C)c(CCC(=O)NCCc4cccc(C)c4)c(C)n3n2)c1,"inconclusive: 44.7 µM [inhibitor, single point]"
21,CCn1c(SCC(=O)Nc2ccc(C(=O)OC)cc2)nnc1-c1cccs1,"inconclusive: 3.16 µM [inhibitor, full curve, poor fit]"
22,Clc1nc(-c2ccccc2)cc(-c2ccccc2)n1,inactive

# Reference: PubChem BioAssay AID1460 (National Center for Advancing Translational Sciences (NCATS), 2008)
